Data: the supplement of paper PMC7826260
Some of the results follow. Viral Rep nickase domains cut single-stranded DNA in vitro (3 µM enzyme, 1 h, 37 °C); shown is the middle of each 90-letter strand. Values are log2 of uncut reads against the no-enzyme pool; the lower, the more was cut; hits are not called. Shares of all reads are compared; uncut strands gain when others are lost, and binding without cutting may add a little.

Tests used:
Test in all cases: uncleaved DNA left, log2 of reads against the no-enzyme library (log2 ratio); higher = less cleavage (more negative = more Rep cleavage of the k-mer); sequences stand for … in CTCGTCCG…ACCGGAGA
[1] = system: T1, Rep nickase domain of Muscovy duck circovirus
T1 sequence (protein, residues 1-111, tag omitted): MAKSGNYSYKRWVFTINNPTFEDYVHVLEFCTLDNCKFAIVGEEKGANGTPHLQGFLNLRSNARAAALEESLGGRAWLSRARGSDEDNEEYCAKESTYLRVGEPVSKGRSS
Description: (§1)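 A pool of 90-nt single-stranded DNAs with seven random bases just before the constant AC of the nick site (name = the seven bases) was cut by 3 µM recombinant His6-SUMO-tagged Rep nickase domain (300 nM DNA, 50 mM HEPES pH 8.0, 50 mM NaCl, 1 mM MnCl2, 1 h, 37 °C, three replicates). Uncut DNA was amplified and sequenced.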

[2] = system: T2, Rep nickase domain of banana bunchy top virus
T2 sequence (protein, residues 1-94, tag omitted): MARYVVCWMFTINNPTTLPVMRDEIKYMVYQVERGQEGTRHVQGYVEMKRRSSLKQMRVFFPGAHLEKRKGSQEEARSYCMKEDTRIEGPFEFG
Description: as §1

[3] = system: T3, Rep nickase domain of cabbage leaf curl virus
T3 sequence (protein, residues 1-116, tag omitted): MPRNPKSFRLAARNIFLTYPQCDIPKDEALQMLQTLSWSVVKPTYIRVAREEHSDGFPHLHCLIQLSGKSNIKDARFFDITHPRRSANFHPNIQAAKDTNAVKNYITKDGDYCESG
Description: as §1

[4] = system: T4, Rep nickase domain of chickpea chlorotic dwarf virus
T4 sequence (protein, residues 1-124, tag omitted): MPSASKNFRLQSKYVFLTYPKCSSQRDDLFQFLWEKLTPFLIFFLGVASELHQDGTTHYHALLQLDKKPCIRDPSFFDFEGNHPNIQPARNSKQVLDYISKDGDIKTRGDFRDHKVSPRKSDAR
Description: as §1

[5] = system: T5, Rep nickase domain of faba bean necrotic yellows virus
T5 sequence (protein, residues 1-98, tag omitted): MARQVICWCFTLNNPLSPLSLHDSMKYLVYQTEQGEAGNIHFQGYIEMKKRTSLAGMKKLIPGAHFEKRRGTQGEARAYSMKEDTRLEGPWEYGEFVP
Description: as §1

[6] = system: T6, Rep nickase domain of maize striate mosaic virus
T6 sequence (protein, residues 1-117, tag omitted): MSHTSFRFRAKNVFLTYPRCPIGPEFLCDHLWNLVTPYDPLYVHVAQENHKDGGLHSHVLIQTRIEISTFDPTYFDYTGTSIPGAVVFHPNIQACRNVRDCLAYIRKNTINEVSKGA
Description: as §1

[7] = system: T7, Rep nickase domain of porcine circovirus 2
T7 sequence (protein, residues 2-116, tag omitted): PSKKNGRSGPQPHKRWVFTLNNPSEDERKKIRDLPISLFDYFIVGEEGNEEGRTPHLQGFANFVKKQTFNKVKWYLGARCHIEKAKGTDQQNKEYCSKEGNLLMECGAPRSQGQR
Description: as §1

[8] = system: T8, Rep nickase domain of tomato golden mosaic virus
T8 sequence (protein, residues 1-124, tag omitted): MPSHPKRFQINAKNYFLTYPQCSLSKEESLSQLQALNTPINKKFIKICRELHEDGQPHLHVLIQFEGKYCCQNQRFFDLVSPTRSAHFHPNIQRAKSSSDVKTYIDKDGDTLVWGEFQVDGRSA
Description: as §1

[9] = system: T9, Rep nickase domain of tomato yellow leaf curl virus
T9 sequence (protein, residues 1-136, tag omitted): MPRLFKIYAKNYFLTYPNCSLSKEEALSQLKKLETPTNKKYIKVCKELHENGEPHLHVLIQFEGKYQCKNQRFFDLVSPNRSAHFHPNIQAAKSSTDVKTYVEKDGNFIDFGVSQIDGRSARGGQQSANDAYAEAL
Description: as §1

[10] = system: T10, Rep nickase domain of wheat dwarf virus
T10 sequence (protein, residues 1-137, tag omitted): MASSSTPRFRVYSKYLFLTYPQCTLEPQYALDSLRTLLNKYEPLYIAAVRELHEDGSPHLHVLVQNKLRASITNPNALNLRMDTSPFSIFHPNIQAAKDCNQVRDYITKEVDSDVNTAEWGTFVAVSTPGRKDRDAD
Description: as §1

Row | Sequence | uncleaved DNA left (log2) [1] | uncleaved DNA left (log2) [2] | uncleaved DNA left (log2) [3] | uncleaved DNA left (log2) [4] | uncleaved DNA left (log2) [5] | uncleaved DNA left (log2) [6] | uncleaved DNA left (log2) [7] | uncleaved DNA left (log2) [8] | uncleaved DNA left (log2) [9] | uncleaved DNA left (log2) [10]
1 | GACTGCT | -0.998 | -0.745 | -0.296 | -0.609 | -0.0356 | -0.47 | -2.94 | 0.0116 | 0.0345 | -0.0289
2 | TTACCGA | -0.0132 | -0.0187 | -0.336 | -1.76 | 0.113 | -0.928 | -0.27 | 0.00664 | 0.00942 | -0.00687
3 | TTTTGCA | -0.0684 | -0.102 | -0.771 | -0.957 | -0.04 | -1.23 | 0.00103 | -0.123 | 0.00701 | -0.0862
4 | CCCGCTC | -0.0205 | 0.0328 | 0.136 | -0.262 | 0.0475 | -0.303 | 0.0963 | 0.0278 | 0.0634 | -0.0154
5 | GAACGCG | -0.00283 | -0.0225 | -0.855 | -0.417 | 0.0858 | -0.861 | 0.142 | 0.0224 | -0.0443 | -0.0812
6 | CACGAAA | -0.00774 | 0.0881 | 0.0145 | -0.456 | 0.173 | -0.808 | -0.0665 | 0.0188 | 0.026 | 0.093
7 | TTCCGCT | -0.142 | -0.214 | -0.375 | -1.22 | -0.0941 | -1.3 | -0.166 | -0.226 | -0.209 | -0.168
8 | TCTGGGT | -0.104 | -0.0755 | 0.0517 | 0.781 | -0.203 | 1.07 | 0.0737 | -0.16 | -0.153 | -0.188
9 | CCCATAC | 0.102 | 0.0228 | 0.00987 | -0.68 | 0.2 | -0.73 | 0.125 | 0.113 | 0.093 | 0.0718
10 | TTCGCCT | -0.0863 | -0.285 | -0.21 | -1.9 | -0.159 | -0.89 | -0.304 | -0.261 | -0.271 | -0.219
11 | TCGTAAC | 0.0822 | -0.0531 | -0.102 | -1.31 | -0.0311 | -0.356 | -0.121 | -0.0394 | -0.173 | -0.103
12 | TGCCCTT | 0.167 | 0.0646 | 0.784 | 0.993 | 0.0849 | 1.76 | -0.107 | 0.0227 | 0.097 | 0.132
13 | AGGCACG | -0.0489 | 0.0823 | -0.538 | -0.39 | 0.0244 | -0.855 | 0.0913 | 0.00433 | -0.0474 | -0.136
14 | AGTGGCA | 0.0886 | 0.071 | 0.14 | 0.555 | 0.0723 | 0.567 | -0.0324 | 0.11 | -0.0428 | -0.0729
15 | GAAGCCC | 0.02 | 0.0238 | 0.263 | 0.326 | 0.0635 | 0.288 | -0.00227 | 0.0105 | 0.0524 | 0.0886
16 | CCGTCCC | -0.108 | -0.0242 | 0.135 | -0.0907 | -0.12 | 0.0662 | -0.199 | -0.00948 | -0.0805 | -0.0545
17 | AGACCGA | -0.0563 | -0.0209 | 0.381 | 0.682 | -0.136 | 0.989 | -0.0564 | -0.118 | -0.126 | -0.0616
18 | TTTTTGA | -0.0467 | -0.088 | 0.028 | -0.0908 | -0.00958 | -0.543 | -0.0626 | -0.0208 | -0.0155 | 0.0121
19 | GCAGGAT | 0.0525 | -0.164 | 0.31 | 1.52 | 0.0864 | 1.77 | 0.177 | 0.108 | -0.0145 | 0.00231
20 | TGTTGTA | -0.2 | -0.0947 | 0.0192 | -0.277 | -0.127 | -0.148 | -0.224 | -0.0187 | -0.00112 | -0.12
21 | GTAGGCT | 0.157 | 0.121 | 0.306 | 0.778 | 0.0479 | 1.3 | 0.151 | 0.137 | 0.159 | 0.159
22 | GATCCCT | -0.105 | -0.00298 | 0.114 | -1.26 | -0.127 | 0.849 | -0.444 | -0.096 | -0.0293 | 0.0754
23 | CTACTAC | -2.61 | -0.178 | -0.506 | -2.69 | -0.0248 | -0.607 | -2.7 | -0.112 | -0.149 | -0.137
24 | GTTACTG | 0.102 | -0.0186 | 0.133 | 0.532 | 0.0583 | 1.35 | 0.0165 | -0.0397 | 0.0216 | 0.0761
25 | TATTTAG | -0.154 | -0.00471 | -0.708 | -0.683 | 0.0509 | -1.2 | 0.0222 | 0.0406 | -0.0828 | -0.033
26 | TTCACCA | 0.0209 | 0.0409 | 0.113 | -1.18 | -0.0194 | 0.162 | -0.349 | -0.0112 | 0.0112 | 0.0443
27 | AAACAGC | -0.133 | -0.0227 | -0.295 | -0.874 | -0.0369 | -1.04 | 0.137 | 0.0352 | -0.011 | -0.0618
28 | CGGGGCT | -0.0143 | 0.0519 | 0.755 | 1.58 | -0.135 | 1.98 | 0.0892 | 0.0255 | 0.0335 | 0.0943
29 | ATTTATA | -0.169 | -0.0703 | -0.0465 | -1.77 | 0.0423 | -0.461 | -0.203 | 0.0122 | 0.122 | 0.0917
30 | GTCGTGA | -0.0175 | -0.00633 | 0.28 | 0.621 | -0.0711 | 1.37 | 0.00951 | -0.0743 | 0.0628 | 0.0239
